Assay results reported in PubChem BioAssay AID686979 (National Center for Advancing Translational Sciences (NCATS), 2013).
“And” between values parts separate entries of the source, which are not always exact repeats. Equal values may be shown once. Out of some 420,000 compounds screened, about 50,000 (12%) were called active. This list was built around the results that the source calls inconclusive (neither active nor inactive); the mix of calls is not that of the screen. Calls come from the whole dose curve; as a rule, active = well fitted inhibition curve with a large enough effect; inconclusive = small, poorly fitted or top-dose-only effect; inactive = flat fitted curve, though single readings scatter. Potencies of inconclusive entries are doubtful fits and often do not repeat.

experiment: qHTS for Inhibitors of human tyrosyl-DNA phosphodiesterase 1 (TDP1): qHTS in cells in presence of CPT; details: chicken DT40 Tdp1-/-;hTDP1 cells + 20 nM CPT, ATP luminescence, 48 h; activity change, negative = growth inhibition: at 46.2 µM (top of the series) unless noted; note: nearly all actives have a fitted effect of over 55% in size
Procedure, shortened: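 Chicken DT40 Tdp1-/- cells stably complemented with human TDP1 were seeded at 400 cells/well in medium containing 20 nM camptothecin, exposed to pin-transferred compounds, and grown at 37 °C for at least 48 hr. Viability was read as ATP luminescence.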
% is set by controls: 0 for no effect and ±100 for the full control effect; potency is the fitted concentration of half-maximal effect; tags give direction and shape of the fitted curve.

| Structure (SMILES) | Potency | activity change, negative = growth inhibition |
| --- | --- | --- |
| O=C1NC(=O)C(=Cc2coc3ccccc3c2=O)C(=O)N1 | inconclusive: 16.4 µM [inhibitor, single point] |  |
| ClC1=C(Cl)[C@]2(Cl)[C@@H]3[C@H]4C[C@H]([C@@H]5O[C@H]45)[C@@H]3[C@@]1(Cl)C2(Cl)Cl |  | inactive: -8.27% |
| Cc1ccccc1C(=O)Oc1cccc(Nc2ncnc3ccccc23)c1 | active: 16.4 µM |  |
| O=C(CNC(=O)c1ccco1)OCN1C(=O)c2ccccc2C1=O | inconclusive: 29.1 µM [inhibitor, single point] |  |
| CCCc1nc2ccccc2c(=O)n1-c1ccccc1OC | inconclusive: 13 µM [inhibitor, single point] |  |
| CCC(=NCCc1c[nH]c2ccccc12)c1c(O)n(C)c(=O)n(C)c1=O | active: 3.98 µM |  |
| COc1ccccc1N1CCN(C(=O)CCC(=O)Nc2nnc(CC(C)C)s2)CC1 | inconclusive: 6.51 µM [inhibitor, partial curve] |  |
| O=C(c1cccc(Cl)c1)C1CCCN(Cc2cccc3cnccc23)C1 (stereo not given) | inconclusive: 18.4 µM [inhibitor, single point] |  |
| COC(=O)N(c1ccc(OC)cc1)P1(=S)OCCC(C)O1 (stereo not given) | active: 14.6 µM |  |
| Fc1ccc(Cn2nnnc2CN2CCC(n3nnc4cc(C(F)(F)F)ccc43)CC2)cc1 | active: 18.4 µM |  |
| COc1ccc(-c2cc(C(F)(F)F)n3nc(C(=O)N4CCC5(CC4)OCCO5)cc3n2)cc1OC |  | inactive: -23.4% |
| CCOC(=O)c1cc2c(cn1)[nH]c1ccccc12 | inconclusive: 20.6 µM [inhibitor, single point] |  |
| CC1CC(NC(=O)C2C3CCC(O3)C2C(=O)O)CC(C)(C)C1 (stereo not given) |  | inactive: 5.94% |
| COc1ccc(-c2ccc3c(c2)CN(C(=O)CCc2ccccc2)Cc2cnnn2-3)cc1 | inconclusive: 25.9 µM [inhibitor, single point] |  |
| Cc1ccccc1-n1c(/C=C/c2c(C)[nH]c3ccccc23)nc2ccccc2c1=O | active: 2.06 µM |  |
| CNCC(=O)c1ccc(O)c(O)c1 |  | inactive: -27.3% |
| O=c1[nH]c2ccccc2n1C1CCN(Cc2ccc(-c3nc4ccc(F)cc4nc3-c3ccccc3)cc2)CC1 | active: 4.11 µM |  |
| CC1=C2C3OC(=O)[C@H](C)[C@H]3CC[C@@]2(C)C=CC1=O (stereo not given in full) |  | inactive: 1.01% |
| O=C(c1cc(Cl)cc(Cl)c1)N1Cc2ccccc2-n2nncc2C1 | inconclusive: 29.1 µM [inhibitor, single point] |  |
| NNC(N)=O |  | inactive: -1.37% |
| CCOC(=O)c1c(NS(=O)(=O)c2ccccc2)n(CCCOC)c2nc3ccccc3nc12 | inconclusive: 20.6 µM [inhibitor, partial curve] |  |
| C=CCn1c(O)c(Cc2ccc(OCC)cc2)c(=O)[nH]c1=O |  | inactive: 23.6% |
| Oc1ccc(Cl)c(Cl)c1 |  | inactive: -18% |
| CC(=O)c1ccc(Oc2nc(C)nc3c2oc2ccccc23)cc1 | inconclusive: 25.9 µM [inhibitor, single point] |  |
| O=C(c1cc(=O)[nH]c2ccc(Br)cc12)N1CCC2(CC1)OCCO2 |  | inconclusive: -28.8% [inhibitor] |

| Structure (SMILES) | Potency | activity change, negative = growth inhibition |
| --- | --- | --- |
| CC(CN)CC(=O)O (stereo not given) |  | inactive: -0.142% |
| COc1ccc(CCNc2nccn(-c3ccc(C)c(C)c3)c2=O)cc1OC | active: 14.6 µM |  |
| CC(=Nc1ccccc1N)c1c(O)n(C)c(=O)n(C)c1=O |  | inactive: -13.4% |
| O=C1NCN(c2ccccc2)C12CCN(C(CCc1ccccc1)c1nnnn1C1CCCC1)CC2 (stereo not given) | inconclusive: 25.9 µM [inhibitor, single point] |  |
| O=C(N/N=C/c1c(O)n(CCc2ccccc2)c(=O)[nH]c1=O)c1ccccc1 |  | inactive: -0.959% |
| C=C(C)[C@H]1Cc2c(ccc3c2O[C@@H]2COc4cc(OC)c(OC)cc4[C@@H]2C3=O)O1 | active: 188 nM and active: 237 nM |  |
| CC(=O)OC1CC2(C)C(C(C)=O)CCC2C2CCC3=CC(=O)CCC3(C)C12 (stereo not given) | inconclusive: 14.6 µM [inhibitor, partial curve, poor fit] |  |
| O=C(CN1C2CCC1CC(O)(c1cccnc1)C2)Nc1ccc2c(c1)OCO2 (stereo not given) |  | inactive: -14.6% |
| CC(C)(C)NCC(O)c1cc(Cl)c(N)c(Cl)c1 (stereo not given) | inconclusive: 29.1 µM [inhibitor, single point] |  |
| CC(C)[C@@]1(NC(=O)[C@H]2CC3c4cccc5[nH]cc(c45)C[C@H]3N(C)C2)O[C@@]2(O)C3CCCN3C(=O)[C@@H](Cc3ccccc3)N2C1=O (stereo not given in full) | active: 14.6 µM |  |
| COC(=O)C1=C(c2ccc(Cl)c(C(F)(F)F)c2)C[C@@H]2CC[C@H]1N2C(=O)NCC1CC1 | active: 14.6 µM |  |
| O=C1c2cccc(N3CCNCC3)c2C2CCCCN12 (stereo not given) | inconclusive: 29.1 µM [inhibitor, single point] |  |
| Clc1ccc(OCC#CCN2CCCCCC2)cc1 |  | inactive: -20.1% |
| CSc1ccc(C(=O)C2CCCN(Cc3cccnc3)C2)cc1 (stereo not given) | inconclusive: 10.3 µM [inhibitor, partial curve] |  |
| Cc1oc(-c2cccc(Cl)c2)nc1CN1CCC(C(=O)NCCCN2CCN(c3ccc(F)cc3)CC2)CC1 | active: 4.61 µM |  |
| CC(=O)Nc1ccccc1C(=O)OCC(=O)Nc1ncccn1 |  | inactive: 7.99% |
| CN1CC[C@H](c2c(O)cc(O)c3c(=O)cc(-c4ccccc4Cl)oc23)[C@H](O)C1 | active: 0.0944 µM |  |
| COc1ccc(CN2CCCC(C(=O)c3cccc(Cl)c3)C2)cc1 (stereo not given) | inconclusive: 18.4 µM [inhibitor, single point] |  |
| COc1ccc(Cc2c(O)[nH]c(=S)[nH]c2=O)cc1 |  | inactive: 11.2% |
| O=C(Nc1cccc2ccccc12)N1CCC2(CC1)OCCO2 |  | inactive: 1.32% |
| COc1ccc(C(=O)Nc2cc(Cl)ccc2C(=O)O)cc1 | inconclusive: 29.1 µM [inhibitor, single point] |  |
| CC(Cc1ccsc1)NCc1cn[nH]c1-c1ccc(F)cc1F (stereo not given) | inconclusive: 23.1 µM [inhibitor, single point] |  |
| Cc1ccc(CN(C)C(=O)c2cccc(S(=O)(=O)N3CCN(c4ccccc4)CC3)c2)cc1 | inconclusive: 25.9 µM [inhibitor, single point] |  |
| CCOCN(C(=O)CCl)c1c(C)cccc1CC | inconclusive: 29.1 µM [inhibitor, single point] and inconclusive: 25.9 µM [inhibitor, single point] |  |
| COc1cc(CN2CCCC(C(=O)c3sccc3C)C2)cc(OC)c1O (stereo not given) | inconclusive: 20.6 µM [inhibitor, single point] |  |

| Structure (SMILES) | Potency | activity change, negative = growth inhibition |
| --- | --- | --- |
| O=C(Cc1ccccc1)N1CCN(Cc2cccc(Cl)c2)CC1 |  | inactive: -3.31% |
| COC(=O)C1=C(c2ccc3ccccc3c2)C[C@@H]2CC[C@H]1N2C(=O)N1CCCCC1 | active: 2.31 µM |  |
| C=C1[C@@H](C)[C@H]2[C@H](Cc3ccccc3)NC(=O)[C@]23[C@H](OC(C)=O)/C=C/[C@](C)(O)C(=O)[C@@H](C)C/C=C/[C@H]3[C@@H]1O | active: 0.181 µM |  |
| CCCOc1ccc(C(=O)Nc2ccc(-c3cc4ccccc4oc3=O)c(C)c2)cc1 | active: 10.3 µM |  |
| CC12CCC3c4ccc(O)c([N+](=O)[O-])c4CCC3C1CCC2=O (stereo not given) | inconclusive: 16.4 µM [inhibitor, partial curve] |  |
| Cc1ccc(-c2nc(S(=O)(=O)c3ccccc3)c(SCC(=O)NC3CCCCC3)o2)cc1 | active: 13 µM |  |
| CN(Cc1ccc(OC(F)F)cc1)Cc1nc2c(Br)cc(Br)cc2c(=O)[nH]1 | inconclusive: 29.1 µM [inhibitor, single point] |  |
| O=C(/C=C/c1ccc(Cl)cc1)N[C@@]12CCC(=O)[C@@H]3Oc4c(O)ccc5c4[C@@]31CCN(CC1CC1)C2C5 | active: 13 µM |  |
| O=C1/C(=C\c2ccccc2)C[C@@]2(O)[C@H]3Cc4ccc(O)c5c4[C@@]2(CCN3CC2CC2)[C@H]1O5 | active: 2.06 µM |  |
| Cc1ccc(N2C(=O)NC(=O)/C(=C/c3ccc(OC(=O)c4cccs4)cc3)C2=O)cc1 |  | inactive: -0.835% |
| COC(=O)C[C@]1(C(=O)OC)CN(C#N)N(c2ccc(Cl)cc2)C12c1ccccc1-c1ccccc12 | active: 1.03 µM |  |
| CCOC(=O)C1C(=O)NC23CCCC2C1c1ccccc1O3 (stereo not given) |  | inactive: -2.51% |
| Cc1nn(-c2ccccc2)c2c1C(c1ccc3c(c1)OCO3)SCC(=O)N2 (stereo not given) | inconclusive: 29.1 µM [inhibitor, single point] |  |
| c1cc2cc(c1)C[n+]1ccc(c3ccccc31)NCc1ccc(cc1)CNc1cc[n+](c3ccccc13)C2 | active: 9.44 µM |  |
| S=C(c1ccc(Cl)cc1)N1CCOCC1 |  | inconclusive: -35.9% [inhibitor] |
| Cc1ccc(C(=O)N[C@@H](C)CN2C3=NC[C@@H](Cc4ccccc4)N3C[C@H]2Cc2ccc(O)cc2)cc1Br | active: 6.51 µM |  |
| CN1C2CCC1CC(OC(=O)c1ccc(Cl)cc1)C2 (stereo not given) | inconclusive: 23.1 µM [inhibitor, partial curve] |  |
| Cc1nn(Cc2ccccc2)c2c1C(c1ccco1)C(C#N)=C(N)O2 (stereo not given) | inconclusive: 18.4 µM [inhibitor, single point] |  |
| COC(=O)C(c1ccccc1)N1CCCCCC1 (stereo not given) |  | inactive: -14.3% |
| O=C(NN=Cc1ccc(N(CCCl)CCCl)cc1)c1cccnc1 | active: 7.31 µM |  |
| Nc1c(Br)cc2c3c(cccc13)-c1ccccc1-2 | active: 8.2 µM |  |
| COC(=O)C1=C(c2ccccc2OCc2ccccc2)C[C@@H]2CC[C@H]1N2C(=O)NC1CCN(Cc2ccccc2)CC1 | inconclusive: 18.4 µM [inhibitor, single point] |  |
| C=C(C)CN1CC[C@@]23c4c5ccc(O)c4O[C@H]2c2[nH]c4ccccc4c2C[C@]3(O)[C@@H]1C5 |  | inactive: -105% |
| CCc1ccccc1NC(=O)C(CC)Oc1ccccc1-c1nnc(-c2ccccc2)o1 (stereo not given) | active: 5.8 µM |  |
| CCCCCn1c(=O)c(C(=O)Nc2c(C)n(C)n(-c3ccccc3)c2=O)c(O)c2ccccc21 | inconclusive: 29.1 µM [inhibitor, single point] |  |
